Laboratory results published in patent US20250297004A1, “NECTIN-4 BINDING AGENTS” (INNATE PHARMA, priority 2022, published 2025).

Legend:
[1] = tested on: Nectin-4 internalization on MDA-MB-468 cell line; assay: Fab-ZAP intracellular internalization assay (CTG readout) on MDA-MB-468; assay type: cell-based, human
Protocol: The humanized variants in Table 3 of Example 3 and in Table 6 of Example 5 were cloned, produced and purified, then tested for their ability to induce Nectin-4 internalization. Chimeric parental 5E7 antibody and isotype controls were used as negative control. This analysis was performed with the Fab-ZAP human Internalization kit assay with the Cell Titer Glo™ (CTG) assay used as readout. Experiments were performed on two cell lines expressing different levels of Nectin-4. MDA-MB-468 have a lower expression of Nectin-4 than SUM190.
Results of the internalization assays on SUM190 cell line are shown in Table 10 below that presents the internalization efficiency (normalized to the chimeric parental antibody internalization efficiency on MDA-M-468 cell line). The experiment was conducted in duplicate (two independent experiments).

human Nectin-4 = target: T1, human Nectin-4 (Homo sapiens, UniProt Q96NY8); assay: Binding to human Nectin-4 by SPR; settings: second set (Table 7)
T1 sequence (Q96NY8 32-510): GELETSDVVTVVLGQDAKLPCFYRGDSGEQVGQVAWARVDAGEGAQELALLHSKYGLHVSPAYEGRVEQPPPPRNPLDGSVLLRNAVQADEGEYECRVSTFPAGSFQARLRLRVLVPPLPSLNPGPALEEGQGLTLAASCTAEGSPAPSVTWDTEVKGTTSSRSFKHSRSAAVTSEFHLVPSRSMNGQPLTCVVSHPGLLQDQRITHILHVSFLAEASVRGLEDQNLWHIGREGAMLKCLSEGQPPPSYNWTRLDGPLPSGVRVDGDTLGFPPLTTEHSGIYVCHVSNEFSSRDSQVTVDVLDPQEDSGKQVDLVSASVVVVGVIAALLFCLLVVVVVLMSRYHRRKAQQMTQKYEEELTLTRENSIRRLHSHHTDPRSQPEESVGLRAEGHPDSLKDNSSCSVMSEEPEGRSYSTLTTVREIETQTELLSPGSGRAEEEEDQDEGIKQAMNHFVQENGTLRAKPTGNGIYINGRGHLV
Protocol: (§1) The antibodies in Table 3 of Example 3 were cloned as human IgG1 isotype antibodies, produced and purified, then tested for binding to human Nectin-4. Affinity of the 16 humanized variants, as well as their association and dissociation constants were assessed by SPR analysis. Table 4 summarizes all the calculated constants (Affinity constant KD (nM), association constant ka (1/Ms) and dissociation constant kd (1/s)).
as §1, with “Table 6” for “Table 3”, “Example 5” for “Example 3”, “Table 7” for “Table 4”

B1: H5L3: humanized 5E7 variant: VH H5 SEQ ID NO: 47, VL L3 SEQ ID NO: 65; full chains SEQ ID NO: 77, 78 (antibody)
heavy: QVQLVQSGAEVKKPGASVKVSCKASGYIFTSYWMHWVKQRPGQGLEWMGEIDPSDSYTNYNQKFKGRVTMTLDKSTSTTYMELSSLRSEDTAVYYCARGYGNYGDYWGQGTLVTVSSASTKGPSVFPLAPSSKSTSGGTAALGCLVKDYFPEPVTVSWNSGALTSGVHTFPAVLQSSGLYSLSSVVTVPSSSLGTQTYICNVNHKPSNTKVDKRV[human IgG1 Fc not printed]
light: DVVMTQSALSNPVTPGEPASISCRSSKSLLHSNGITYLYWYLQKPGQSPQLLIYQMSNLASGVPDRFSSSGSGTDFTLKISRVEAEDVGVYYCAQNLELPWTFGGGTKVEIKRTVAAPSVFIFPPSDEQLKSGTASVVCLLNNFYPREAKVQWKVDNALQSGNSQESVTEQDSKDSTYSLSSTLTLSKADYEKHKVYACEVTHQGLSSPVTKSFNRGEC
- efficacy of the parental chimeric 5E7 antibody (internalization) [1]: over 75%
- ka (human Nectin-4; SPR association constant): 250000 ± 10000 M⁻¹ s⁻¹
- kd (human Nectin-4; SPR dissociation constant): 0.0053 ± 0 s⁻¹
- Kd (human Nectin-4; SPR, human IgG1 isotype antibodies): 21.5 ± 0.4 nM
